Results from PubChem BioAssay AID360 (National Center for Advancing Translational Sciences (NCATS), 2006).
Out of some 48,000 compounds screened, about 550 (1.1%) were called active. Roughly 4% stayed inconclusive and do not appear here. Cut-off read from the data, not from the text of the source: active = potency below about 15 µM; inconclusive = mostly about 16 µM to 33 µM; inactive = weaker than that. This is one part of the list.

biological target: Lysosomal acid glucosylceramidase (Homo sapiens) (UniProt P04062); experiment: Glucocerebrosidase; conditions: purified enzyme, resorufin glucoside fluorescence (screen aimed at inhibitors), 20 min;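 note: the screen sought inhibitors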
Chain of UniProt P04062 (P04062 whole entry, looked up): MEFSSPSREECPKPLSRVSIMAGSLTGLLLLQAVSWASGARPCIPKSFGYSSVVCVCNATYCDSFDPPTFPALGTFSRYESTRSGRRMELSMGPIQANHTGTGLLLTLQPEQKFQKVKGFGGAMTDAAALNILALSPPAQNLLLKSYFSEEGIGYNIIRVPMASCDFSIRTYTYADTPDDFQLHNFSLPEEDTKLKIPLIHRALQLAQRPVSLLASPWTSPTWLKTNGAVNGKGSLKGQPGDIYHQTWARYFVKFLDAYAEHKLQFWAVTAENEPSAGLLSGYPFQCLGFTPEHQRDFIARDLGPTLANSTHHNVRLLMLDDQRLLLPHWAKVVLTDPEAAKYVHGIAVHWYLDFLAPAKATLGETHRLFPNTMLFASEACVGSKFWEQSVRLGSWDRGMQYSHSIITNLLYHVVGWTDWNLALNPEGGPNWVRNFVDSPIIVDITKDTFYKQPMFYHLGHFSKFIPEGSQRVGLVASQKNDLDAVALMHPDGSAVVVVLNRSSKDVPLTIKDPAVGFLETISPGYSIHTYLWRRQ
Procedure, shortened: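 Normal human glucocerebrosidase (0.2 nM final) was assayed with resorufin β-D-glucopyranoside (30 uM final) in 50mM citric acid/KH2PO4, 10mM sodium taurocholate, 0.01% tween-20, pH 5.9. Compounds were titrated; fluorescence (Ex 548, Em 600) read after 20 min at RT.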
Potency is the fitted concentration of half-maximal effect.

Potency, inactive:
O=c1c2c3nc4ccccc4nc3n(-c3ccc4c(c3)OCCO4)c2ncn1C1CCCC1, Cc1csc(NC(=O)CSc2nc3sc(C)c(C)c3c(=O)[nH]2)n1 > 76.9 µM, CCOC(=O)Cn1c(=O)c2c(nc3n2CCN3c2ccc(C)cc2)n(C)c1=O > 76.9 µM, COC(=O)c1ccc(NC(=O)C(C)N2C(=O)c3ccccc3C2=O)cc1 (configuration not stated) > 76.9 µM, CCOc1ccc(C2C=C(c3ccc(C)cc3)Nc3ncnn32)cc1 (configuration not stated) > 76.9 µM, Nc1nc2c(s1)C(=O)CCC2 > 76.9 µM, COc1cccc(-c2nc(CS(=O)(=O)CC(=O)NCCCOC(C)C)c(C)o2)c1 > 76.9 µM, CCC12CCCN3CCC4(C(=C(C(=O)OC)C1)Nc1ccccc14)C32 (configuration not stated) > 76.9 µM, COC(=O)Cc1c(C)c2ccc(OCC(=O)NCc3ccc4c(c3)OCO4)cc2oc1=O > 76.9 µM, CCCn1c(NC(=O)c2ccccc2)nc2ccccc21 > 76.9 µM, C=CCn1c(=O)c2ccccc2n2c(SCC(=O)NCc3cccs3)nnc12 > 76.9 µM, CCOc1cc(NS(=O)(=O)CC)c(OCC)cc1NC(=O)c1ccco1 > 76.9 µM, O=C(CNC(=O)c1ccco1)OCN1C(=O)c2ccccc2C1=O > 76.9 µM, COc1ccc(N2C(=O)CC(Sc3nc(C)c4c(n3)CCCC4)C2=O)cc1 (configuration not stated) > 76.9 µM, Cc1ccc(Cc2nc(-c3cccc(C)c3)no2)cc1 > 76.9 µM, C=CCn1c(SCC(=O)NC2CCCCC2)nnc1C(C)NC(=O)c1cccs1 (configuration not stated) > 76.9 µM, CCOC(=O)N1CCC(NC(=O)c2sc3nc4n(c(=O)c3c2C)CCCC4)CC1 > 76.9 µM, Cn1c(N)c(C(=O)COC(=O)c2cccs2)c(=O)n(C)c1=O > 76.9 µM, O=C(COC(=O)Cc1cn2ccsc2n1)NCc1ccc2c(c1)OCO2 > 76.9 µM, O=C(Oc1cccc2cccnc12)c1cccc(-n2cnnn2)c1 > 76.9 µM, CCOC(=O)C1=C(N)Oc2cc(C)n(CCc3ccc(OC)c(OC)c3)c(=O)c2C1c1cccnc1 (configuration not stated) > 76.9 µM, O=C(NC1CCCC1)C(NS(=O)(=O)c1cccc2nsnc12)c1ccccc1 (configuration not stated) > 76.9 µM, N=c1c2c(n(Cc3ccccc3)c3c1CCC3)CCC2 > 76.9 µM, COc1cc2nc(C3CC3)n(NC(=O)c3ccc(Cl)cc3)c(=O)c2cc1OC > 76.9 µM, CN1CCN(C(=O)c2ccc3c(=O)n(CCc4ccccc4)c(=S)[nH]c3c2)CC1 > 76.9 µM, CCOC(=O)Cn1nc(C)c(-c2ccccc2)c1N > 76.9 µM, CN1CCN(C(=O)C2(NC(=O)Nc3cccc(F)c3)CCCCC2)CC1 > 76.9 µM, c1ccc(Nc2nc(-c3cccnc3)cs2)nc1 > 76.9 µM, COCCNC(=O)CN(Cc1ccc2c(c1)OCO2)C(=O)CCC(=O)Nc1nccs1 > 76.9 µM, CC(C)c1nc(N2CCCC2)c(C#N)c2c1CCCC2 > 76.9 µM, Cc1ccc(S(=O)(=O)Nc2ccc3ncccc3c2)cc1, CCOc1ccc(CCNC(=O)C2CC(=O)N(C3CCCC3)C2)cc1OCC (configuration not stated) > 76.9 µM, Cc1cccc(CN2CCN(C(=O)c3ccccc3F)CC2)c1 > 76.9 µM, COc1cc(C(=O)Nc2ccc(NC(=O)c3ccco3)nc2)cc(OC)c1OC > 76.9 µM, CCOC(=O)N1CCC(NC(=O)CCCN2C(=O)CSc3ncccc32)CC1 > 76.9 µM, Cc1c(C(=O)N2CCOCC2)oc2ccc(S(=O)(=O)N3CCCC3)cc12 > 76.9 µM, O=C(CSc1ccccc1C(=O)O)NCc1ccco1 > 76.9 µM, COc1ccc(-c2noc(CN(C(=O)c3ccc(OC(C)=O)cc3)C(C)C)n2)cc1OC > 76.9 µM, Cn1ncc2c1ncn1nc(CCc3ccccc3)nc21 > 76.9 µM, COc1cc(OC)cc(-c2nc3nc(C)c(CCC(=O)NCc4ccco4)c(C)n3n2)c1 > 76.9 µM, O=C(NCCOCC(F)(F)C(F)F)c1cc(F)c(F)cc1Cl > 76.9 µM, COc1ccccc1Cn1c(-c2ccco2)nc2nc3ccccc3nc21 > 76.9 µM, CCN1CCc2c(sc(N)c2C#N)C1 > 76.9 µM, O=C1CC(c2ccco2)Cc2nc(Nc3nc(-c4ccccc4)c4ccccc4n3)ncc21 (configuration not stated) > 76.9 µM, c1ccc(CNCCN2CCNCC2)nc1 > 76.9 µM, O=C(Nc1nnc(SCc2ccccc2)s1)c1cccs1, O=C(c1ccc(Br)o1)N1CCN(C/C=C/c2ccccc2)CC1 > 76.9 µM, COc1ccc(OC)c(NC(=O)N[C@@H](Cc2ccccc2)C(=O)O)c1 > 76.9 µM, c1csc(-c2nn[nH]n2)c1 > 76.9 µM, COc1ccc(C(=O)N[C@H]2COC(C)(C)O[C@H]2c2ccccc2)cc1 > 76.9 µM, COc1ccc(N2CCN(CCNC(=O)c3nnc(Cc4c(F)cccc4Cl)o3)CC2)cc1 > 76.9 µM, Cc1nnc(NC(=O)C2C3C=CC(O3)C2C(=O)O)s1 (configuration not stated) > 76.9 µM, O=C(Nc1ccccc1C(=O)OC1CCOC1=O)c1ccco1 (configuration not stated) > 76.9 µM, CCCOC(=O)C1=C(C)NC2=C(C(=O)CCC2)C1c1cc(OC)ccc1OC (configuration not stated) > 76.9 µM, CCOC(=O)c1ccc(NC(=O)NC2CC3CCC(C2)N3Cc2nnnn2C(C)(C)C)cc1 (configuration not stated) > 76.9 µM, C/C(N)=C(/C#N)C(=O)CSc1ncnc2ccccc12 > 76.9 µM, O=C(Nc1ccc2c(c1)OCCO2)C1CCCN1S(=O)(=O)c1ccc(Cl)cc1 (configuration not stated) > 76.9 µM, COc1ccc(C)cc1S(=O)(=O)N1CCC(C)CC1 > 76.9 µM, CCOc1ccccc1OCC(=O)Nc1ccc(S(=O)(=O)Nc2nc(C)cc(C)n2)cc1 > 76.9 µM, CCc1ccc(N2CC(C(=O)OCC(=O)Nc3cc(C)on3)CC2=O)cc1 (configuration not stated) > 76.9 µM, CCOc1ccc2[nH]c(=O)c(CN(Cc3ccco3)C(=O)c3ccc(Br)cc3)cc2c1, c1coc(CNc2nc3ccccc3n2CCN2CCOCC2)c1 > 76.9 µM, CCCCCC(=O)Nc1ccccc1N1CCN(c2ccccc2)CC1 > 76.9 µM, CC(=O)Nc1ccc(Cc2ccncc2)cc1 > 76.9 µM, CC1=C2C(CCS2(=O)=O)CC2(C1)C(=O)OC(C)(C)OC2=O (configuration not stated) > 76.9 µM, O=C(Nc1ccccc1)C1CC2CCCC(C1)C2=O (configuration not stated) > 76.9 µM, O=C(CSc1nnc(-c2ccc(O)cc2)o1)N1CCOCC1 > 76.9 µM, Cc1nn2c3cc(N4CCOCC4)ccc3nc2c2ccccc12 > 76.9 µM, Nn1c(SCC(=O)Nc2ccc3c(c2)OCO3)nnc1-c1ccncc1 > 76.9 µM, COc1cccc(C2=CC(c3cc(OC)ccc3OC)n3nnnc3N2)c1 (configuration not stated) > 76.9 µM, Cc1ccc(S(=O)(=O)c2nc(C)oc2NCc2ccccc2)cc1 > 76.9 µM, CCOc1ccc(NC(=O)CSc2nnc(-c3ccncc3)n2CC2CCCO2)cc1 (configuration not stated) > 76.9 µM, C=C(C)c1ccc(C(C)(C)NC(=O)NCc2ccco2)cc1 > 76.9 µM, CC1CCCCN1C(=O)CSc1ccc(-c2ccc(F)cc2)nn1 (configuration not stated) > 76.9 µM, CCOc1ccc(CN2CCN(C(=O)c3ccccc3)CC2)cc1 > 76.9 µM, Cc1n[nH]c(C)c1S(=O)(=O)N1CCN(C(=O)c2ccco2)CC1 > 76.9 µM, O=C(Cn1cnc2c(oc3ccccc32)c1=O)NCC1CCCO1 (configuration not stated) > 76.9 µM, Cc1ccc(C(=O)C(C)OC(=O)C2CC(=O)N(C3CCCCC3)C2)cc1 (configuration not stated) > 76.9 µM, Oc1ccc2cccnc2c1 > 76.9 µM, CCc1cccc(NC(=O)Cn2cccc2)c1 > 76.9 µM, COc1cc(O)c2c(c1)OC(C)(C)CC2=O > 76.9 µM, O=C(CSc1nnc(Cn2cnc3ccccc32)o1)c1ccccc1 > 76.9 µM, O=C(Cc1ccc(Br)cc1)N1CCN(c2ccccc2)CC1 > 76.9 µM, CCOC(=O)C1CCN(C(=O)COc2ccc(N(C)S(=O)(=O)c3cccs3)cc2)CC1 > 76.9 µM, CCOc1ccc(OCC)c(NC(=O)C2CCN(S(=O)(=O)c3cnc[nH]3)CC2)c1 > 76.9 µM, CN1CCn2c1nc(N1CCCCC1)nc2=O > 76.9 µM, O=C(OCc1nnc(-c2ccc(Cl)cc2)o1)c1ccncc1 > 76.9 µM, CC(C)(C)n1ncc2c(=O)n(CC(=O)Nc3ccc4c(c3)OCO4)cnc21 > 76.9 µM, O=C(O)c1cccc(S(=O)(=O)N2Cc3ccccc3C2)c1 > 76.9 µM, CN(C1CCCCC1)S(=O)(=O)c1ccc(Cl)c(C(=O)O)c1 > 76.9 µM, CC(=O)Nc1ccc(S(=O)(=O)Nc2nnc(C3CCCCC3)s2)cc1 > 76.9 µM, COc1ccc(S(=O)(=O)NCCSC(C)(C)C)cc1Cl > 76.9 µM
